Results published in publication PMC3469516 (Molecular Biology of the Cell, 2012).

Target: endogenous protein kinase Cα (PKCα) (mouse (endogenous in MEFs), UniProt P20444 1-672)
Assay: co-IP

fold decrease of coprecipitated RhoA in DGKζ-null against wild-type cells: ~2.5 fold
B1: endogenous RhoA (natural protein)
chain: not shown
